# PMC12136788
# The list shows a part of the results.
# T1: UNK ZnF1-3 (human, UniProt Q9C0B0 31-174)
# T1 sequence: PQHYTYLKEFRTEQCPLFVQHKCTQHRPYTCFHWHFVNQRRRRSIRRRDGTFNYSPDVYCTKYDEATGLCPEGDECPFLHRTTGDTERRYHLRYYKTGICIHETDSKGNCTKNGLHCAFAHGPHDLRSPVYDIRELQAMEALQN
# B1: chr3:148802587:148802588:-_ENSG00000071794_ENST00000310053|hu_mus|hu_hu_hu_mus_False|8_48 (ssRNA)
# RNA: GGGAGUUCUACAGUCCGACGAUCUCCAACAACUUGUCCUCUCAUAGUUCCAAAUAAAACCAAAUCUUGCUCUUCAUCACUCGUUAGAAAGUCAUCUGGAGGAAUAAUGUCUUGGAAUUCAAAAUGUGGAAAGAAAGUUGAGUACAACAGAGGAUUGAGCAUCA
# B2: chr6:72561926:72561927:-_ENSMUSG00000056429_ENSMUST00000070524|mus_mus|FALSE|FALSE (ssRNA)
# RNA: GGGAGUUCUACAGUCCGACGAUCGUAAAUAAAACAUCACCAGAGGAGAGUGUCAUCAAAGUGCCGGUGCAAAACCUGAAGCUAUCCCAUCUCUGCCAGCCCAGACUUGCCACCAAACCCCAGAGGAGGUCACAGUCUUUUCAUCAACAGAGGAUUGAGCAUCA
# B3: chr10:18963012:18963013:+_ENSG00000165997_ENST00000377275|hu_hu|FALSE|FALSE (ssRNA)
# RNA: GGGAGUUCUACAGUCCGACGAUCCCCUUCUCCUGUGAGAGCACAGCAGGAUUGAAUGUGCCAUGGAUGAUCCUUAAUUGAACUAAGGGUGAGGUAUUUCGAGAUUUCAGCUGCUGUCAUACACCCUUUCAUAUCCUGUUUAUUCAACAGAGGAUUGAGCAUCA
# B4: chr8:126036873:126036874:-_ENSG00000164961_ENST00000318410|hu_mus|FALSE|FALSE (ssRNA)
# RNA: GGGAGUUCUACAGUCCGACGAUCAUGCACGUUGCAUGAGGAGUCAAGUAUCUUUCUCACGUCCAAGUUCAUUCUAGUCAUAGAACAUCCUGUCACUGGAGCAGGAGAAAGAAGUCACAGGACUGUUCGGAAUUCAUCAAAAAUCAACAGAGGAUUGAGCAUCA
# B5: 94973625_94974325_524_3pUTR_ENSMUSG00000014602_ENSMUST00000171796|mouse|control|control (ssRNA)
# RNA: GGGAGUUCUACAGUCCGACGAUCGAGUAGGACAUGUUGUCGUUGGUGGUGUCGUUGAUUCGAGAGAAGAGGUCUUCGCAGAGCUGUGGAAUGAUGCCUUGCUGGUCCUUCUCCUGUUUCCCCAUCAUGGUGUAGGACUUGCCGCAACAGAGGAUUGAGCAUCA
# B6: chr17:74721675:74721676:-_ENSG00000070495_ENST00000397625|hu_hu|FALSE|FALSE (ssRNA)
# RNA: GGGAGUUCUACAGUCCGACGAUCGUCUUCCAAAAGUUUCCUUCUUUUAGGGUGUUCACCAUAGCUGCUGUCAAAGAUGUAAAGGGGACUAUCAUCUCGAGUGCUCUCCAUGUACUCGAUGUAGUAUUUCAUCUUCAUCUUCACCAACAGAGGAUUGAGCAUCA
# B7: chr1:152005216:152005217:-_ENSG00000163191_ENST00000271638|perfect_dup|motif|central (ssRNA)
# RNA: GGGAGUUCUACAGUCCGACGAUCAGAGGAUUAGAUUCGCUUCUGGGAAGUUUGGAUGAAAGAAUCAUGGCACGCGGUAGCGGAGCCACCAAUGAGGUUGAGAAACUCUUGGAAAUCUAGCUGCCCGUCACAGUUGAGGUCCAGCAACAGAGGAUUGAGCAUCA
# B8: chr4:138847413:138847414:+_ENSMUSG00000028745_ENSMUST00000102508|mus_mus|FALSE|FALSE (ssRNA)
# RNA: GGGAGUUCUACAGUCCGACGAUCGCUGAGGACAUCACUCCUUCCUCCACUGCUGUCCCCUGUCCCCAGCCCUGACUCCAAGCAACUCCCACACACACACGGAUCAGAUCUCCAGUUUCUUCUCUCACACACCAGUUAGUUCAUCAACAGAGGAUUGAGCAUCA
# B9: chr4:107908409:107908410:-_ENSMUSG00000034636_ENSMUST00000043616|mus_mus|motif|central (ssRNA)
# RNA: GGGAGUUCUACAGUCCGACGAUCUGAAACUGUAGAAUUUCAAGCACAAGUUAAGUUCAAACACUGAGAGAGAGAUUCCCGGAGAGACAAUAUUGAAGGAAGACCUUUCUUGCCUCAUAAGUUAAAAAUCACAAAACAAAUCAGCAACAGAGGAUUGAGCAUCA
# B10: chr1:167252050:167252051:+_ENSMUSG00000040836_ENSMUST00000111450|mus_mus|FALSE|FALSE (ssRNA)
# RNA: GGGAGUUCUACAGUCCGACGAUCGGAUACCAUUGAAGACAAGAGCCACAUGGUGGCUUCCCUUUCACAUCCACCAUCUCUAGUCCUCCUGAUGCCCCAGCCACAUCUCCAUCUGCUUCUAACGUGUGCUUUCGAAGCCUCGUUCAACAGAGGAUUGAGCAUCA
# B11: 143732237_143732357_1318_CDS_ENSMUSG00000029581_ENSMUST00000031565|mouse|control|control (ssRNA)
# RNA: GGGAGUUCUACAGUCCGACGAUCGUUGUAGGCGCCGUCAUUGAAUUCCAACUGGAAGACAUCGUAACUGGAACGGUUGGCAUCCAGAGUGCCCGUGACCUUGCGGCAGCCAAUGAACCCGUGUUCCCCCCGGAACACGAUGAUCAACAGAGGAUUGAGCAUCA
# B12: chr8:117878989:117878990:-_ENSG00000164754_ENST00000297338|hu_hu|hu_hu_hu_mus_True|8_58 (ssRNA)
# RNA: GGGAGUUCUACAGUCCGACGAUCCCAGAGGCCCUCGUUUACUGAGGACAAAAUGUGCGUAGAACAUUUUUCUUAUUGGCUAUGAAAUAAGAAGAAACCUGGAUCUCGGCGGGGAGCCGGGAGGGGUUGGGUGGCCCGGGAGGGCAACAGAGGAUUGAGCAUCA
# B13: 67227886_67228528_1651_CDS_ENSMUSG00000031605_ENSMUST00000034017|mouse|control|control (ssRNA)
# RNA: GGGAGUUCUACAGUCCGACGAUCGUCAUAUACUUCAACACUUUUUCGUACUAAAGGACCAUCAUGACCUCCUACAGCAUAUAAUAAGUUGUUUAACACACCAACACCUGCUCCGCUCCGUCUGGUGCUCAUUUCUGCUAUGUACAACAGAGGAUUGAGCAUCA
# B14: chr1:225611761:225611762:-_ENSG00000143815_ENST00000272163|hu_mus|hu_hu_hu_mus_True|1_108 (ssRNA)
# RNA: GGGAGUUCUACAGUCCGACGAUCCCAGGCCAUCGACCUCUGACCACUUCACCCUCAACAAACUUCCUACUUGGCAUUUUCUAAAAUUAGUCUGGCCGCGCUCCGGCGGGAACUCCAGCCACUCCAGGACAGUCACCCGCACAGCAACAGAGGAUUGAGCAUCA
# B15: 31828395_31829081_688_CDS_ENSG00000204386_ENST00000375631|human|control|control (ssRNA)
# RNA: GGGAGUUCUACAGUCCGACGAUCUUUCUGAAUACCAGAGCCCGGUCCAGGGGCAAACACUUCAGUGCCAAUAUCCAGGGAGAGAUUCCGGGGUGUGCUCCAGGAAACACCAUCAUCCUUGCUCCAUACCAACAUGGUAGAGGCCAACAGAGGAUUGAGCAUCA
# B16: chr4:25749455:25749456:-_ENSG00000091490_ENST00000264868|hu_hu|hu_hu_hu_mus_False|58_88 (ssRNA)
# RNA: GGGAGUUCUACAGUCCGACGAUCGCACUAUGACCUCUAGAAAAAUCAUUCAAGGAGAAAAAUGUAAACCAAUGUACAAAGCUAUUGCCUUCCCUGUGUGUGGAGUGUUUGUCUCAAGGCUCCUUCUAGCUGCUGGAUUUGGGACAACAGAGGAUUGAGCAUCA
# B17: chr1:213302989:213302990:+_ENSG00000136643_ENST00000366960|hu_hu|motif|central (ssRNA)
# RNA: GGGAGUUCUACAGUCCGACGAUCAGAAGCAACAGCCCCUAGUGCUGAAGAAUCCGAAGAAAGAUUGAGACCAAAAGUUCGGAUGGGAGAAUUUUGAUUGGAAGCCAUUCCAUCAUCUAACUCAGCAAGAGAAUCCACAUCAACCAACAGAGGAUUGAGCAUCA
# B18: 91924360_91936672_504_3pUTR_ENSG00000001629_ENST00000265742|human|control|control (ssRNA)
# RNA: GGGAGUUCUACAGUCCGACGAUCCCUAAUAUUUUAUUCAUUCCAUGUCUAGCAGCAUAAUGUAAUGGAGUAUUGUGCUGGUAGGGCUCCCCAUAAGAUGUAUUUGGAUCAAGAGAUUCUUUUAGCUGAGGAUUGUUUUCAUAUCAACAGAGGAUUGAGCAUCA
# B19: chr9:95013113:95013114:-_ENSG00000196305_ENST00000443024|hu_hu|hu_hu_hu_mus_False|48_78 (ssRNA)
# RNA: GGGAGUUCUACAGUCCGACGAUCCUCAGUCAGAAAGGGCGUGUAAGGGGCCAUCAGUCUGCAAAGAGAAAGCAGGACACUGAACAGGGUUUCUAGGGCCAUGACACAGUCUUCCACCCCACUCUCACCCUUUAACCUCCUCCUCAACAGAGGAUUGAGCAUCA
# B20: 49434091_49434211_7401_CDS_ENSG00000167548_ENST00000301067|human|control|control (ssRNA)
# RNA: GGGAGUUCUACAGUCCGACGAUCAGUGUGGGCUAGAGACCCAGCCUUAAAGGCAACUUCAGGGGGCUGGGGUCGGGGUGGCUUAUGCAAUGGGGCAAAUGGGUCACGGGACUGAGGGCGUGAGGGUGGGCGAGAAUAAGGGUCCAACAGAGGAUUGAGCAUCA
# B21: chr2:168010559:168010560:-_ENSMUSG00000051149_ENSMUST00000088001|perfect_dup|motif|central (ssRNA)
# RNA: GGGAGUUCUACAGUCCGACGAUCUUCCAAAGUCUUUUUGUCUGCAUUGAAGGUACAGUAGGGGCAAUUAAGGAGAAUCCGGUUUUCAAAGUCUUCACUAUGGACAUUGCGGAAAUGACUUUUGUAGGCAGAGAAGAAUUUUGACAACAGAGGAUUGAGCAUCA
# B22: chr14:103542484:103542485:-_ENSMUSG00000033004_ENSMUST00000161008|mus_hu|FALSE|FALSE (ssRNA)
# RNA: GGGAGUUCUACAGUCCGACGAUCUUUGACAAAAUAUUGUUAAUGUGAUGAAAGACGUUGCUCUGAUGAAGGAACUGGUGAUCAGAUUGCUUGAAUUUGAGACUCCAGCACCUCAGGGCCAUUUGCUGUAAUGAACUGCCGCUGCAACAGAGGAUUGAGCAUCA
# Target: T1, UNK ZnF1-3
# Assay: nsRBNS (natural sequence RNA bind-n-seq); RBNS binding buffer (assumed for nsRBNS): 25 mM Tris pH 7.5, 150 mM KCl, 3 mM MgCl2, 0.01% Triton X-100, 500 ug/ml BSA, 20 U/ml SUPERase-In, 4 C; UNK is unkempt and MSI1 is Musashi-1; names of the RNAs are library labels; protein concentration not given here; high values mean tight binding
row,Binder,binding signal
1,B1,1.26 enrichment R
2,B2,2.11 enrichment R
3,B3,0.896 enrichment R
4,B4,0.971 enrichment R
5,B5,0.588 enrichment R
6,B6,0.689 enrichment R
7,B7,1.5 enrichment R
8,B8,1.25 enrichment R
9,B9,1.46 enrichment R
10,B10,0.592 enrichment R
11,B11,0.682 enrichment R
12,B12,1.44 enrichment R
13,B13,1.06 enrichment R
14,B14,1.29 enrichment R
15,B15,1.04 enrichment R
16,B16,1.12 enrichment R
17,B17,2.3 enrichment R
18,B18,0.937 enrichment R
19,B19,0.742 enrichment R
20,B20,2.33 enrichment R
21,B21,1.29 enrichment R
22,B22,0.954 enrichment R
